Source: patent US20230181756A1, “CCR7 ANTIBODY DRUG CONJUGATES FOR TREATING CANCER” (Novartis AG, priority 2020, published 2023)

Columns and labels:
hCCR7 (CHO-flpin-hCCR7) = target: T1, hCCR7 (CHO-flpin-hCCR7) (Homo sapiens, UniProt P32248); assay: β-Arrestin assay, antagonistic mode (hCCL19); format: cell-based; conditions: antibody 0.5 μM, hCCL19 titrated, FIGS. 4B, 4C
T1 construct: host or cells: CHO-flpin (doxycycline-induced)
T1 sequence (P32248 25-378): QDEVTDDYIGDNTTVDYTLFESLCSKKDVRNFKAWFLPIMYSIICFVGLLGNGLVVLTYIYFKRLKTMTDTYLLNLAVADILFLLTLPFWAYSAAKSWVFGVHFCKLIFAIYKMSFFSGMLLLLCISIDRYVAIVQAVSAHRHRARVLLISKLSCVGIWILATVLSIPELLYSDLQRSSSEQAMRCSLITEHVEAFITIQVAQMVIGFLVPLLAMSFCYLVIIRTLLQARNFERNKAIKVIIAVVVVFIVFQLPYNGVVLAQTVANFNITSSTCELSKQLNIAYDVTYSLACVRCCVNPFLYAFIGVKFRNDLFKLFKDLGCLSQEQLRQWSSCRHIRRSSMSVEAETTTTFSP
Description: To determine functionality of the anti-CCR7 antibodies, the β-Arrestin assay was performed using the PathHunter Flash Detection Kit from DiscoverX (#93-0247) either in agonistic mode for assessment of agonistic function or antagonistic mode for assessment of antagonistic function.
In the antagonistic mode, CHO-flpin-hCCR7 cells were seeded as described above. The next day, a 6× working solution (0.5 μM×6=3.0 μM) in 1× assay buffer was made for each test antibody or positive control MAB197 (R&D reference antibody; ligand antagonist) or negative control hIgG. 5 μl of the 6× working solution of antibodies or controls were added to each well, briefly spun down, and incubated at 37° C./5% CO2 for 30 min. During incubation, serial dilutions of a 6× working solution in 1× assay buffer were made for hCCL19. Following incubation, 5 μl of the 6× working solution of hCCL19 were added to each well, briefly spun down, and incubated at 37° C./5% CO2 for 90 min. Following incubation, 25 μl of detection reagent were added to each well, incubated at room temperature in the dark while shaking for 20 min. Then, the luminescence signal for enzyme activity was measured on the Envision machine and analyzed in Excel.

CCR7 immunogen scaffold = target: T2, CCR7 immunogen scaffold (Homo sapiens, UniProt P32248, C210S); assay: Epitope binning using Octet Red96 system (BLI); format: binding; conditions: pairwise competition, 100 nM antibody
T2 construct: made in house
T2 sequence (P32248 with tags, fused parts or gaps, stated change not applied): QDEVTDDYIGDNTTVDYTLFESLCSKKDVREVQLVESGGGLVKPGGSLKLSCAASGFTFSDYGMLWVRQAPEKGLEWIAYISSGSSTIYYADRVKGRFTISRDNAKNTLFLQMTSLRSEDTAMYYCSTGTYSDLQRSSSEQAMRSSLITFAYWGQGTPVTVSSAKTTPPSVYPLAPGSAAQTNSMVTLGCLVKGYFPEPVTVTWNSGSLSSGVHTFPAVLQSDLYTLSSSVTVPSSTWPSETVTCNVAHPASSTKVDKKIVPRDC
T2 sequence (as listed by the source partner): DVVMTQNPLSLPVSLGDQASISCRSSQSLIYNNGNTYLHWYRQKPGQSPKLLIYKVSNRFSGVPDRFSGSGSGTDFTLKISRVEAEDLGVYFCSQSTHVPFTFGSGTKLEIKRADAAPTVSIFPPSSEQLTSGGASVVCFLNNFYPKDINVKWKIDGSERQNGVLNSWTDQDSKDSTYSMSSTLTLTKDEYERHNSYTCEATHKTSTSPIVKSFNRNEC
Description: Epitope binning of anti-hCCR7 parental antibodies was performed using the Octet Red96 system (ForteBio, USA) that measures biolayer interferometry (BLI). The CCR7 immunogen scaffold was biotinylated via an AviTag™ utilizing BirA biotin ligase according to Manufacturer's recommendations (Avidity, LLC, USA cat #BirA500). The biotinylated immunogen scaffold was loaded at 1.5 μg/ml onto pre-equilibrated streptavidin sensors (ForteBio, USA). The sensors were then transferred to a solution containing 100 nM antibody A in 1× kinetics buffer (ForteBio, USA). Sensors were briefly washed in 1× kinetics buffer and transferred to a second solution containing 100 nM of competitor antibody. Binding kinetics was determined from raw data using the Octet Red96 system analysis software (Version 6.3, ForteBio, USA). Antibodies were tested in all pairwise combinations, as both Antibody A and as competitor antibody.

- functionality in antagonistic format (hCCR7 (CHO-flpin-hCCR7)): weak antagonist
- Bin (epitope binning) (CCR7 immunogen scaffold): 1
B1: 684E12 Parental: parental anti-CCR7 antibody derived from the murine hybridoma 684E12 (antibody, V domains shown)
VH: EVHLVESGGGLVKPGGSLKLSCAASGFTFSNFAMSWVRQTPEKRLEWVATISTGGTYTYYPDSVKGRFTISRDNAKKTLYLQMSSLRSEDTAMYYCTRRGYDGVDKWGQGTTLTVSS
VL: DVVMTQTPLTLSVTIGQPASISCKSGQSLLDSDGKTYLNWFLQRPGQSPKRLIYLVSKLDSGVPDRFTGSGSGTDFTLKISRVEAEDLGVYYCWQGTHFPQTFGGGTKLEIK
